Reference: PubChem BioAssay (Tox21)
Inconclusive means that the source gave no clear call. Such entries were picked first, then a sample of the others. For some of these results: Where the call is inconclusive, the potency comes from a doubtful curve fit. Some structures have more than one record in an assay (separate samples or runs), and their calls can disagree. Calls of active or inactive are those of the source. Unless noted, calls come from the whole dose curve; as a rule, active = well fitted curve in the direction sought with a large enough effect in the repeat runs; inconclusive = weak or mixed curves; inactive = no such curve, though single readings can be large; an effect the other way counts as inactive or inconclusive.

What was measured:
[1] = molecular target: Nuclear receptor subfamily 1 group I member 3 (Homo sapiens) (UniProt Q14994); experiment: qHTS assay to identify small molecule antagonists of the constitutive androstane receptor (CAR) signaling pathway (AID 1224838); conditions: HepG2-CYP2B6-hCAR luciferase, CITCO-stimulated, 24 h; series mostly up to 92.4 µM;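 note: HepG2 cells stably expressing hCAR with CYP2B6 luciferase reporter stimulated by CITCO; nearly all actives have a fitted effect of over 40% in size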; note: potency is the fitted concentration of half-maximal effect
Sequence of UniProt Q14994 (Q14994 whole entry, looked up): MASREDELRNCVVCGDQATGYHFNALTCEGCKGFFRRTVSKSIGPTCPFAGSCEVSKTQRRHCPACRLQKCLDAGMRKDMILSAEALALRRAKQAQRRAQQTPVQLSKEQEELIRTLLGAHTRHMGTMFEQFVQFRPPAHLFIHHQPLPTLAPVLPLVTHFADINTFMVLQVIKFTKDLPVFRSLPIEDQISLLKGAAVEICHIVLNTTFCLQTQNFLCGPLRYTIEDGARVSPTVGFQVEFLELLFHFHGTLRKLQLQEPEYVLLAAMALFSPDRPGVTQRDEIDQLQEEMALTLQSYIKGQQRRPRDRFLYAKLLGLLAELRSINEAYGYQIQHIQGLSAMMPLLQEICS
Summary of the method: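 Reporter luminescence was quantified after 24 h exposure of hCAR/CYP2B6-2.2kb double-stable HepG2 cells to compounds at 15 concentrations in the presence of 50 nM CITCO final.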

[2] = molecular target: Thyrotropin receptor (Homo sapiens) (UniProt P16473); experiment: qHTS assay to identify small molecule agonists of the thyroid stimulating hormone receptor (TSHR) signaling pathway (AID 1224843; calls by dose curve; note: nearly all actives have a fitted effect of over 45% in size; note: potency is the fitted concentration of half-maximal effect; for activation: % is set by controls: 0 for no effect and ±100 for the full control effect); conditions: TSHR-HEK293 cells, cAMP HTRF, agonist mode, 30 min; activation: at 92.4 µM (top of the series) unless noted
Sequence of UniProt P16473 (P16473 whole entry, looked up): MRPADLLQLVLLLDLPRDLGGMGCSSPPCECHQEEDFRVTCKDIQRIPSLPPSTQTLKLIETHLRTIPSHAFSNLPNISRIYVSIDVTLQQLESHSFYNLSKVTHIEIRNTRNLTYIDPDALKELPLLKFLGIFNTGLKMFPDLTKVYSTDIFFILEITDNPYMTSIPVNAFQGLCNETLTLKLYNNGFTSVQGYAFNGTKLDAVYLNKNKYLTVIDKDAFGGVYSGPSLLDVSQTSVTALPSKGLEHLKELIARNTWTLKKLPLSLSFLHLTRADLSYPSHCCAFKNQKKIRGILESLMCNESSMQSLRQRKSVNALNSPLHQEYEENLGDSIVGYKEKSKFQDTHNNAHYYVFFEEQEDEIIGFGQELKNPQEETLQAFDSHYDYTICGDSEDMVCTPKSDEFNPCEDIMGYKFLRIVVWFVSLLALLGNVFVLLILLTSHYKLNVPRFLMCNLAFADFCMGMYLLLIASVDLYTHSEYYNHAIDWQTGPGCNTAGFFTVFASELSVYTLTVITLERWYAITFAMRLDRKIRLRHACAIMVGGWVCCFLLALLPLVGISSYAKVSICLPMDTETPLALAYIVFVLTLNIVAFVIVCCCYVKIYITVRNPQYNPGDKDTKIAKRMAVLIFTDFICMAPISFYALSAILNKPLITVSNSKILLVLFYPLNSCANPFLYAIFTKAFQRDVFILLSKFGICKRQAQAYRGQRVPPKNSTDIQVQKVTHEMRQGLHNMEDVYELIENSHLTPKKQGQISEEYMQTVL
Summary of the method: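 Steps: seed 800 TSHR-HEK293 cells per well; add test compound and hold 30 min at ambient temperature; dispense cAMP-d2 then anti-cAMP cryptate; incubate 1 h at ambient; measure fluorescence intensity.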

[3] = qHTS assay to identify small molecule agonists of H2AX - cell viability counter screen (AID 1224847; calls by dose curve; note: nearly all actives have a fitted effect of over 30% in size; note: potency is the fitted concentration of half-maximal effect); conditions: CHO-K1 viability, CellTiter-Glo luminescence, 3 h; series mostly up to 154 µM
Summary of the method: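 Cells plated first: CHO-K1, 1000 per well in 10% FBS medium, incubated overnight at 37C. Then 15-point compound titration added (final DMSO 0.76%) for 3 hr. Finally CellTiter-Glo added and luminescence read.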

[4] = molecular target: Nuclear receptor subfamily 1 group I member 3 (Homo sapiens) (UniProt Q14994); experiment: qHTS assay to identify small molecule agonists of the constitutive androstane receptor (CAR) signaling pathway (AID 1224839); conditions: HepG2 hCAR CYP2B6-luciferase, agonist mode, 24 h; series mostly up to 92.4 µM; note: nearly all actives have a fitted effect of over 15% in size; note: potency is the fitted concentration of half-maximal effect;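 for activation: HepG2 cells stably carrying human CAR and a CYP2B6 luciferase reporter; % is set by controls: 0 for no effect and ±100 for the full control effect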
Summary of the method: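 HepG2-CYP2B6-hCAR cells, 2500/well, 4 h pre-incubation; compounds 15 conc.; PK11195 0.75 uM final; 24 h, 37 C/5% CO2; ONE-Glo luciferase read.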

[5] = qHTS assay to identify small molecule agonists of the hypoxia (HIF-1) signaling pathway (AID 1224846; active = well fitted activation curve with a large enough effect in the signal ratio in the repeat runs, not every such curve was filed as active; inconclusive = weak or mixed curves; the % refers to the signal ratio; note: potency is the fitted concentration of half-maximal effect; for activation: % is set by controls: 0 for no effect and ±100 for the full control effect); conditions: HRE-bla ME-180 cells, beta-lactamase ratio, 17 h; activation: at 76.8 µM (top of the series) unless noted
Summary of the method: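 Hypoxia-pathway activation was scored as increased beta-lactamase from an HRE-controlled reporter in ME-180 cells; plated at 2,000 cells per well with 0.5% dialyzed FBS, they were exposed 17 hrs to compounds and then given CCF4-AM.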

[6] = qHTS assay to identify small molecule antagonists of the estrogen related receptor (ERR) signaling pathway from Tox21 library (AID 1224848); conditions: ERR reporter cell line, luciferase antagonist mode, 18 h; series mostly up to 92.4 µM; note: nearly all actives have a fitted effect of over 50% in size; note: potency is the fitted concentration of half-maximal effect
Summary of the method: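 Luminescent reporter read-out (ONE-Glo) from NTP's ERR cell line after 18 h treatment at 37 C with DMSO-dissolved Tox21 compounds; cells pre-plated 6 h beforehand at 2,000 per well.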

[7] = qHTS assay to identify small molecule agonists of H2AX (AID 1224845; active = well fitted activation curve with a large enough effect in the signal ratio in the repeat runs, not every such curve was filed as active; inconclusive = weak or mixed curves; the % refers to the signal ratio; note: potency is the fitted concentration of half-maximal effect; for activation (H2AX phosphorylation): % is set by controls: 0 for no effect and ±100 for the full control effect); conditions: CHO-K1 phospho-H2AX Ser139 HTRF, 3 h; activation (H2AX phosphorylation): at 154 µM (top of the series) unless noted
Summary of the method: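 Wild-type CHO-K1 cells, plated overnight, exposed 3hr at 37C to 15 concentrations (0.76% DMSO final). Lysed, then HTRF anti-pH2AX (S139) cryptate and anti-H2AX-d2 antibodies, 24 hr room temperature; 665/620 nm emission read.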

[8] = qHTS assay to identify small molecule agonists of the hypoxia (HIF-1) signaling pathway - cell viability counter screen (AID 1224844; calls by dose curve; note: nearly all actives have a fitted effect of over 50% in size; note: potency is the fitted concentration of half-maximal effect); conditions: HRE-bla ME-180 viability, CellTiter-Glo luminescence, 17 h; series mostly up to 76.8 µM
Summary of the method: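 Multiplexed with the HRE beta-lactamase assay, this viability read used CellTiter-Glo luminescence (30 min, RT) on HRE-bla ME-180 cells treated 17 hrs with compounds in 0.5% dialyzed FBS medium.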

[9] = qHTS RealTime-Glo MT Cell Viability Assay in HEK293 cells - 32 hour (AID 1224868); conditions: RealTime-Glo luminescence; series mostly up to 76.8 µM; note: nearly all actives have a fitted effect of over 50% in size; note: potency is the fitted concentration of half-maximal effect
Summary of the method: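 HEK293 cells were seeded at 600 cells/well together with NanoLuc luciferase and cell-permeant prosubstrate, preincubated 5 h at 37 C/5% CO2, then given compound in DMSO by pintool. Luminescence from viable-cell prosubstrate reduction was read repeatedly over 40 h.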

[10] = A CellTox Green Cytotoxicity Assay to monitor cytotoxicity in HEK293 cells - 0 hour (AID 1224869); conditions: CellTox Green fluorescence; series mostly up to 76.8 µM; note: potency is the fitted concentration of half-maximal effect; nearly all actives have a fitted effect of over 50% in size
Summary of the method: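 Seeding of HEK293 cells together with cytotoxicity dye preceded a 5 h incubation at 37 C/5% CO2. Test compounds in DMSO were then added and fluorescence monitored across 40 h.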

[11] = qHTS assay to identify small molecule antagonists of the estrogen related receptor signaling pathway with the pleiotropic PPARgamma coactivator (PGC) from Tox21 10K library (AID 1224841; call rule not given here; note: potency is the fitted concentration of half-maximal effect); conditions: PGC/ERR reporter cell line, ONE-Glo luciferase, 18 h; series mostly up to 92.4 µM
Summary of the method: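 Each well held 2,000 PGC/ERR cells, pre-incubated six hours (37 C, 5% CO2). Test substances in DMSO were added by pin tool and left for 18 h at 37 C before luciferase detection by One-Glo.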

[12] = qHTS assay to identify small molecule antagonists of the estrogen related receptor signaling pathway with the pleiotropic PPARgamma coactivator (PGC) from Tox21 10K library - cell viability counter screen (AID 1224840; active = well fitted cell-killing curve with a large enough effect in the repeat runs, not every such curve was filed as active; inconclusive = weak or mixed curves, or effect the other way; inactive = no such curve, though single readings can be large or run the other way; note: % is set by controls: 0 for no effect and ±100 for the full control effect; nearly all actives have a fitted effect of over 40% in size); conditions: PGC/ERR reporter cells viability, CellTiter-Fluor, 17.5 h; series mostly up to 92.4 µM
Summary of the method: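 Here the PGC/ERR cells serve as a cytotoxicity control: they are exposed to compounds for 17.5 hours at 37 C, and live-cell signal is quantified using CellTiter-Fluor fluorescence.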
Tags give direction and shape of the fitted curve or compound fluorescence and quenching.

With `CC1CCC(CO)CC1` (centres undefined) the Potency [1] was “inactive” and the Potency [2] was “inactive”.
With `CCCCCOC(C)=O` the Potency [1] was active: 2.2 µM and the Potency [3] was inconclusive: 128 µM [cytotoxic, single point].
In the case of `O=Cc1ccccc1S(=O)(=O)O`, the Potency [1] is reported as inconclusive: 34.3 µM [inhibitor, partial curve] and the activation [2] is reported as inconclusive: -21.3%.
With `CC(=O)OC(C)OC(C)=O` the Potency [4] was “inactive”.
In the case of `CCCCC1C(=O)N(c2ccccc2)N(c2ccccc2)C1=O`, the Potency [1] is reported as inconclusive: 61.1 µM [inhibitor, partial curve, poor fit], the activation [2] is reported as inconclusive: 6.89% and the Potency [5] is reported as “inactive”. For the same molecule, the Potency [6] was inconclusive: 68.1 µM [inhibitor, single point].
With `C#CCN(C)CCCOc1ccc(Cl)cc1Cl` the Potency [4] was active: 26.6 µM.
For `CC1=CC[C@H](C(C)C)C=C1`, the Potency [1] was “inactive” and the Potency [7] was “inactive”.
In the case of `CCOc1ccc2c(c1)C(C)CC(C)(C)N2` (centres undefined), the Potency [1] is reported as “inactive” and the Potency [7] is reported as inconclusive: 113 µM [rising, single point].
For `C=CCNC(N)=S`, the Potency [1] was inconclusive: 21.1 µM [inhibitor, partial curve] and the Potency [8] was inconclusive: 15.1 µM [cytotoxic, full curve, poor fit].
With `NCCCN1CCOCC1` the Potency [1] was “inactive”, the Potency [3] was “inactive” and the Potency [6] was “inactive”.
In the case of `O=C(CCNNC(=O)c1ccncc1)NCc1ccccc1`, the Potency [4] is reported as “inactive”.
In the case of `CCOCCOCC`, the Potency [4] is reported as “inactive”.
For `Cc1nc2ccc(Cl)cc2[nH]1`, the Potency [4] was inconclusive: 54.4 µM [activator, partial curve].
With `O=C(O)c1cn(C2CC2)c2cc(Cl)c(F)cc2c1=O` the Potency [1] was inconclusive: 2.66 µM [inhibitor, single point], the Potency [9] was inconclusive: 13.4 µM [rising, single point] and the Potency [10] was inconclusive: 10.7 µM [activator, single point].
With `C[C@]12CCC(=O)C=C1C=C[C@@H]1[C@@H]2CC[C@@]2(C)[C@H]1CC[C@@]21CCC(=O)O1` the Potency [1] was inconclusive: 2.66 µM [inhibitor, full curve] and the Potency [6] was active: 23.7 µM.
For `Nc1ccn([C@@H]2O[C@H](CO)[C@@H](O)[C@@H]2O)c(=O)n1`, the Potency [1] was inconclusive: 0.122 µM [inhibitor, full curve], the Potency [11] was “inactive” and the Potency [7] was active: 20.1 µM. The Potency [3] was “inactive”.
With `C[N+]1(CC2COC(c3ccccc3)(C3CCCCC3)O2)CCCCC1` (centres undefined) the Potency [1] was inconclusive: 10.6 µM [inhibitor, partial curve, poor fit], the Potency [8] was “inactive” and the Potency [9] was inconclusive: 12 µM [cytotoxic, partial curve].
In the case of `CCCC(=O)OC/C=C(\C)CCC=C(C)C`, the Potency [1] is reported as “inactive” and the Potency [5] is reported as “inactive”.
In the case of `N#C/C(=C1\SCC(c2ccccc2Cl)S1)n1ccnc1` (centres undefined), the Potency [4] is reported as inconclusive: 33.5 µM [activator, single point].
For `CC(C)(CO)[N+](=O)[O-]`, the Potency [4] was “inactive”.
For `CNC(=S)NC`, the Potency [1] was inconclusive: 61.1 µM [inhibitor, single point] and the Potency [5] was inconclusive: 7.76 µM [rising, full curve].
For `Cc1c(Nc2ncccc2C(=O)O)cccc1C(F)(F)F`, the Potency [4] was inconclusive: 26.6 µM [activator, partial curve].
For `CCOC(/C=C(\C)CCC=C(C)C)OCC`, the Potency [1] was “inactive” and the Potency [9] was “inactive”.
With `CCCCCCCCOC(=O)CCCCCCCCC(=O)OCCCCCCCC` the Potency [1] was inconclusive: 61.1 µM [inhibitor, single point] and the Potency [6] was “inactive”.
For `COC(=O)N[C@H](C(=O)N[C@@H](Cc1ccccc1)[C@@H](O)CN(Cc1ccc(-c2ccccn2)cc1)NC(=O)[C@@H](NC(=O)OC)C(C)(C)C)C(C)(C)C`, the Potency [1] was inconclusive: 11.9 µM [inhibitor, single point] and the Potency [7] was active: 24.7 µM.
For `O=c1[nH]c(=O)n([C@H]2C[C@H](O)[C@@H](CO)O2)cc1C(F)(F)F`, the Potency [1] was inconclusive: 6.68 µM [inhibitor], the Potency [2] was “inactive” and the Potency [7] was active: 0.196 µM. The Potency [3] was “inactive” and the Potency [6] was inconclusive: 0.944 µM [inhibitor, full curve].
With `CCCCOC(=O)C(C)Oc1ccc(Oc2ccc(C(F)(F)F)cn2)cc1` (centres undefined) the Potency [1] was inconclusive: 68.6 µM [inhibitor, partial curve, poor fit], the Potency [2] was inconclusive: 43.3 µM [inhibitor, partial curve, poor fit] and the Potency [9] was “inactive”.
With `C=CC(=O)NCOCCCC` the Potency [4] was inconclusive: 79.3 µM [activator, partial curve, poor fit].
In the case of `COc1ccc2c(c1)C(=O)N(CCc1ccc(S(=O)(=O)NC(=O)NC3CCCCC3)cc1)C(=O)C2(C)C`, the Potency [1] is reported as inconclusive: 11.9 µM [inhibitor, partial curve], the Potency [8] is reported as inconclusive: 26.8 µM [cytotoxic, partial curve, poor fit] and the Potency [7] is reported as “inactive”. The Potency [9] was “inactive”.
In the case of `CCOC(=O)C(O)c1ccccc1` (centres undefined), the Potency [1] is reported as “inactive”, the Potency [8] is reported as “inactive” and the Potency [7] is reported as “inactive”.
In the case of `O=c1[nH]c2ccccc2c(=O)n1CCCl`, the Potency [1] is reported as “inactive” and the Potency [6] is reported as “inactive”.
With `CNCC[C@@H](Oc1ccccc1C)c1ccccc1` the Potency [1] was inconclusive: 33.5 µM [inhibitor, single point], the Potency [11] was inconclusive: 18.8 µM [falling, partial curve] and the Potency [6] was inconclusive: 29.8 µM [inhibitor].
With `C=Cc1ccc(O)c(OC)c1` the Potency [1] was “inactive” and the Potency [7] was inconclusive: 113 µM [activator, single point].
For `CC(=O)c1nccs1`, the Potency [4] was “inactive”.
In the case of `COc1cccc2sc(N)nc12`, the Potency [4] is reported as inconclusive: 54.8 µM [activator, partial curve], the Potency [12] is reported as “inactive” and the Potency [9] is reported as “inactive”.
With `C=CCOc1cc(Cl)ccc1C(=O)NCCN(CC)CC` the Potency [4] was inconclusive: 26.6 µM [activator, partial curve].
With `OCCOc1cccc(OCCO)c1` the Potency [4] was inconclusive: 61.1 µM [activator] and the Potency [2] was “inactive”.
